# In the supplement of paper PMC8728848:
# Some of the results follow.
# B1: ZG-16 (Homo sapiens), O60844 (protein)
# chain: IQARSSSYSGEYGSGGGKRFSHSGNQLDGPITALRVRVNTYYIVGLQVRYGKVWSDYVGGRNGDLEEIFLHPGESVIQVSGKYKWYLKKLVFVTDKGRYLSFGKDSGTSFNAVPLHPNTVLRFISGRSGSLIDAIGLHWDVYPTSCSRCSRGSDDDDKAEPRGPTIKPCPPCKCPAPNLLGGPSVFIFPPKIKDVLMISLSPIVTCVVVDVSEDDPDVQISWFVNNVEVHTAQTQTHREDYNSTLRVVSALPIQHQDWMSGKEFKCKVNNKDLPAPIERTISKPKGSVRAPQVYVLPPPEEEMTKKQVTLTCMVTDFMPEDIYVEWTNNGKTELNYKNTEPVLDSDGSYFMYSKLRVEKKNWVERNSYSCSVVHEGLHNHHTTKSFSRTPGKRTYHHHHHHARKLTR
# How the values were obtained:
# Experiment in all cases: glycan array binding signal (z-score within array); higher = stronger binding
# Conditions in all cases: glycan notation: IUPAC condensed, linker removed
# [1] = target: Gal(b1-4)GlcNAc(b1-3)Gal(b1-4)[Fuc(a1-3)]GlcNAc(b1-3)Gal(b1-4)[Fuc(a1-3)]GlcNAc
# Procedure, shortened: (§1)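 From the Consortium for Functional Glycomics database, 3228 arrays were curated, keeping only those whose protein sequence was available. Binding is given as a within-array Z-score averaged across arrays sharing a protein sequence and across linkers. Negative Z-scores can be read as non-binding.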
# [2] = target: Gal(b1-4)GlcNAc(b1-3)GalNAc
# Procedure, shortened: as §1
# [3] = target: Gal(b1-4)GlcNAc(b1-3)[Gal(b1-4)GlcNAc(b1-6)]Gal(b1-4)GlcNAc
# Procedure, shortened: as §1
# [4] = target: Gal(b1-4)GlcNAc(b1-3)[Gal(b1-4)GlcNAc(b1-6)]GalNAc
# Procedure, shortened: as §1
# [5] = target: Gal(b1-4)GlcNAc(b1-3)[GlcNAc(b1-6)]Gal(b1-4)GlcNAc
# Procedure, shortened: as §1
# [6] = target: Gal(b1-4)GlcNAc(b1-6)Gal(b1-4)GlcNAc
# Procedure, shortened: as §1
# [7] = target: Gal(b1-4)GlcNAc(b1-6)GalNAc
# Procedure, shortened: as §1
# [8] = target: Gal(b1-4)GlcNAc(b1-6)[Gal(b1-3)]GalNAc
# Procedure, shortened: as §1
# [9] = target: Gal3S(b1-3)GalNAc
# Procedure, shortened: as §1
# [10] = target: Gal3S(b1-3)GlcNAc
# Procedure, shortened: as §1
# [11] = target: Gal3S(b1-3)[Fuc(a1-4)]GlcNAc
# Procedure, shortened: as §1
# [12] = target: Gal3S(b1-4)Glc
# Procedure, shortened: as §1
# [13] = target: Gal3S(b1-4)Glc6S
# Procedure, shortened: as §1
# [14] = target: Gal3S(b1-4)GlcNAc
# Procedure, shortened: as §1
# [15] = target: Gal3S(b1-4)GlcNAc6S
# Procedure, shortened: as §1
# [16] = target: Gal3S(b1-4)[Fuc(a1-3)]Glc
# Procedure, shortened: as §1
# [17] = target: Gal3S(b1-4)[Fuc(a1-3)]Glc6S
# Procedure, shortened: as §1
# [18] = target: Gal3S4S(b1-4)GlcNAc
# Procedure, shortened: as §1
# [19] = target: Gal3S6S(b1-4)GlcNAc
# Procedure, shortened: as §1
# [20] = target: Gal3S6S(b1-4)GlcNAc6S
# Procedure, shortened: as §1
# [21] = target: Gal4S(b1-4)GlcNAc
# Procedure, shortened: as §1
# [22] = target: Gal4S6S(b1-4)GlcNAc
# Procedure, shortened: as §1
# [23] = target: Gal6S(b1-4)Glc
# Procedure, shortened: as §1
# [24] = target: Gal6S(b1-4)Glc6S
# Procedure, shortened: as §1
# [25] = target: Gal6S(b1-4)GlcNAc
# Procedure, shortened: as §1
# [26] = target: Gal6S(b1-4)GlcNAc6S
# Procedure, shortened: as §1
# [27] = target: GalNAc(a1-3)Gal
# Procedure, shortened: as §1
# [28] = target: GalNAc(a1-3)GalNAc
# Procedure, shortened: as §1
# [29] = target: GalNAc(a1-3)GalNAc(a1-3)Gal(a1-4)Gal(b1-4)GlcNAc
# Procedure, shortened: as §1
# [30] = target: GalNAc(b1-3)Gal
# Procedure, shortened: as §1
# [31] = target: GalNAc(b1-3)Gal(a1-4)Gal(b1-4)GlcNAc
# Procedure, shortened: as §1
# [32] = target: GalNAc(b1-3)Gal(a1-4)Gal(b1-4)GlcNAc(b1-3)Gal(b1-4)Glc
# Procedure, shortened: as §1
# [33] = target: GalNAc(b1-3)Gal(a1-6)Gal(b1-4)Glc
# Procedure, shortened: as §1
# [34] = target: GalNAc(b1-3)GalNAc
# Procedure, shortened: as §1
# [35] = target: GalNAc(b1-4)GlcNAc
# Procedure, shortened: as §1
# [36] = target: GalNAc(b1-4)GlcNAc(b1-2)Man(a1-3)[GalNAc(b1-4)GlcNAc(b1-2)Man(a1-6)]Man(b1-4)GlcNAc(b1-4)GlcNAc
# Procedure, shortened: as §1
# [37] = target: Glc(a1-4)Glc
# Procedure, shortened: as §1
binder,measurement,setting,value
B1,glycan array binding signal (z-score),[1],-0.192
same,glycan array binding signal (z-score),[2],-0.21
same,glycan array binding signal (z-score),[3],-0.197
same,glycan array binding signal (z-score),[4],-0.184
same,glycan array binding signal (z-score),[5],-0.131
same,glycan array binding signal (z-score),[6],-0.189
same,glycan array binding signal (z-score),[7],-0.177
same,glycan array binding signal (z-score),[8],-0.193
same,glycan array binding signal (z-score),[9],-0.111
same,glycan array binding signal (z-score),[10],0.931
same,glycan array binding signal (z-score),[11],-0.228
same,glycan array binding signal (z-score),[12],-0.203
same,glycan array binding signal (z-score),[13],-0.172
same,glycan array binding signal (z-score),[14],-0.113
same,glycan array binding signal (z-score),[15],-0.015
same,glycan array binding signal (z-score),[16],-0.154
same,glycan array binding signal (z-score),[17],-0.167
same,glycan array binding signal (z-score),[18],-0.17
same,glycan array binding signal (z-score),[19],-0.13
same,glycan array binding signal (z-score),[20],-0.09
same,glycan array binding signal (z-score),[21],-0.164
same,glycan array binding signal (z-score),[22],-0.123
same,glycan array binding signal (z-score),[23],-0.153
same,glycan array binding signal (z-score),[24],-0.16
same,glycan array binding signal (z-score),[25],-0.098
same,glycan array binding signal (z-score),[26],-0.193
same,glycan array binding signal (z-score),[27],-0.202
same,glycan array binding signal (z-score),[28],-0.148
same,glycan array binding signal (z-score),[29],-0.175
same,glycan array binding signal (z-score),[30],-0.222
same,glycan array binding signal (z-score),[31],-0.193
same,glycan array binding signal (z-score),[32],-0.184
same,glycan array binding signal (z-score),[33],-0.204
same,glycan array binding signal (z-score),[34],-0.1
same,glycan array binding signal (z-score),[35],-0.204
same,glycan array binding signal (z-score),[36],-0.185
same,glycan array binding signal (z-score),[37],-0.105
